The campaign covered roughly 360,000 compounds. About 7,500 (2.1%) were called active. Inconclusive results, whose numbers are uncertain, are shown with a selection of clear calls. Calls come from the whole dose curve; as a rule, active = well fitted cell-killing curve with a large enough effect; inconclusive = small, poorly fitted or top-dose-only effect, or effect the other way, or another doubt; inactive = no such curve, though single readings can be large or run the other way. Potencies of inconclusive entries are left out as doubtful fits.
Test: qHTS for induction of synthetic lethality in tumor cells producing 2HG: qHTS for the HT-1080-IDH1KD cell line;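 for activity, negative = toxicity: 0% = DMSO wells and -100% = cell-free medium wells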
Conditions: HT-1080 IDH1 knockdown viability, ATP luminescence, 48 h; activity, negative = toxicity: at 46.1 µM (top of the series) unless noted
Procedure, shortened: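 Using the IDH1-knockdown HT-1080 line run in the same batch and compound series as the NT line, viability after 48 h at 37 °C was determined by CellTiter-Glo luminescence and expressed as % activity.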
Potency is the fitted concentration of half-maximal effect; tags give direction and shape of the fitted curve.

Structure (SMILES) | Potency | activity, negative = toxicity
COC(=O)CC1(c2ccc(OC)cc2)C(=O)c2ccccc2C1=O | inconclusive [cytotoxic, partial curve] | –
CCOc1ccc(-n2cc(-c3ccccc3)c3c(N4CCOCC4)ncnc32)cc1 | inconclusive [cytotoxic, single point] | –
Cc1cc(NC(=O)CSc2nc(-c3ccco3)cc(C(F)(F)F)n2)n(-c2ccccc2)n1 | inconclusive [cytotoxic, full curve] | –
O=C(N/N=C/c1cn(-c2cccs2)nc1-c1ccccc1)c1ccccc1O | active: 20.6 µM | –
Nc1c(C(=O)NCc2ccccc2)c2nc3ccccc3nc2n1-c1ccc2c(c1)OCO2 | inconclusive [rising, single point] | –
C=C(C(=O)c1ccccc1)C(c1ccccc1)C(C)C(=O)c1ccccc1 (stereo not drawn) | inconclusive [cytotoxic, single point] | –
COc1ccc(CC(N)c2csc(Nc3ccc(C(=O)c4ccccc4)cc3)n2)cc1 (stereo not drawn) | inconclusive [cytotoxic, single point] | –
Cc1nc2c(C)cccc2c2c1CCN2c1ccccc1F | inconclusive [cytotoxic, partial curve] | –
N=C(N)SCP(=O)(c1ccccc1)c1ccccc1 | inactive | –
O=C(NC(c1ccc2c(c1)OCO2)c1ccccn1)C1CCN(CCOc2ccc(Cl)cc2Cl)CC1 (stereo not drawn) | inconclusive [cytotoxic, single point] | –
Cc1ccc(NC2Sc3ccccc3NC2=O)cc1Cl (stereo not drawn) | inconclusive [cytotoxic, single point] | –
CC(C)=CCOc1c2ccoc2cc2oc(=O)ccc12 | inactive | –
CCN(C(=O)COC(=O)c1ccc(N2C(=O)c3ccccc3C2=O)cc1)C1CCS(=O)(=O)C1 (stereo not drawn) | inactive | –
CCCNC(=O)C(Cc1ccc(I)cc1)NC(=O)c1ccc(C#N)cc1 (stereo not drawn) | inactive | –
COc1ccc(NC(=O)CCCC2CCCCC2)cc1S(=O)(=O)N1CCCCC1 | inactive | –
CN(C)C(=O)Oc1cccc([N+](C)(C)C)c1 | inconclusive [rising, full curve] | –
CCOc1ccc(NS(=O)(=O)c2ccc(NC(=O)C3CCCO3)cc2)cc1 (stereo not drawn) | inactive | –
COc1cc2c(cc1OC)C(c1cccs1)N(C(=O)c1ccncc1)CC2 (stereo not drawn) | active: 13 µM | –
CC(NC(=O)COC(=O)C1CCN(c2ccc(C(F)(F)F)cn2)CC1)c1ccc(Br)cc1 (stereo not drawn) | inactive | –
O=C(COC(=O)c1ccccc1Cc1ccccc1)Nc1ccc(SC(F)F)cc1 | inactive | –
CCc1nnc(NC(=O)CCC(=O)N2CCN(CCOc3ccc(C)cc3)CC2)s1 | inactive | –
CCc1ccccc1NC(=O)CN1CCN(C(=O)CNC(=O)c2ccc(-c3ccccc3)cc2)CC1 | inconclusive [cytotoxic, single point] | –
COc1ccc(COCC(O)CN2CCC(CN3C(=O)c4cccc5cccc(c45)C3=O)CC2)cc1OC (stereo not drawn) | inconclusive [cytotoxic, single point] | –

Structure (SMILES) | Potency | activity, negative = toxicity
CN(CCOc1ccccc1)C(=O)c1cc(S(=O)(=O)N2CCOCC2)c(Cl)cc1Cl | inactive | –
CCn1c(COc2ccc(Cl)cc2)nnc1SCc1nc2ccccc2[nH]1 | inconclusive [cytotoxic, single point] | –
CCc1ccc(C(CNc2nc(C(F)(F)F)nc3ccccc23)N(C)C)cc1 (stereo not drawn) | active: 20.6 µM | –
O=S(=O)(NCCSc1ccccc1)c1ccc(F)cc1 | inconclusive [cytotoxic, single point] | –
O=C(N/N=C\c1cc(Br)ccc1O)c1ccc(S(=O)(=O)N2CCCCC2)cc1 | active: 2.06 µM | –
CCOC(=O)c1ccc(NC(=O)N2CCc3ccccc32)cc1 | inconclusive [cytotoxic, single point] | –
O=C(NCCCNc1ccc(C(F)(F)F)cc1[N+](=O)[O-])c1ccc(Cl)cc1 | inconclusive [cytotoxic, single point] | –
O=C(Nc1ccc2c(c1)oc1ccccc12)c1ccc(Br)o1 | inconclusive [cytotoxic, single point] | –
CN1OC[C@@H]2CN(Cc3ccc(Cl)cc3)[C@H](c3ccc(-n4ccnc4)cc3)C[C@@H]21 | inconclusive [cytotoxic, single point] | –
COc1cccc(/C=C2\SC(=O)NC2=O)c1OCc1ccc(C(=O)O)cc1 | inactive | –
O=C1CC(c2cccc([N+](=O)[O-])c2)c2cc3c(cc2N1)CCC3 (stereo not drawn) | inconclusive [cytotoxic, single point] | –
CC(=O)/C(=C/N(C)C)Sc1ccc(C)cc1 | – | inconclusive: -3.59% [cytotoxic]
Nc1ccc2nc(-c3cccs3)[nH]c2c1 | inactive | –
Cc1cccc2cc(C#N)c(N3CCN(C)CC3)nc12 | inconclusive [cytotoxic, partial curve, poor fit] | –
OC(c1ccc(Cl)c(F)c1)c1ncc(-c2ccc(Oc3ccccc3)cc2)[nH]1 (stereo not drawn) | inconclusive [cytotoxic, single point] | –
CC1(C)CC(NS(=O)(=O)c2ccc(F)cc2)CC(C)(C)N1 | inconclusive [rising, single point] | –
O=C(CNC(=S)N(Cc1ccccc1)Cc1ccccc1F)NCc1ccc(Cl)cc1 | inconclusive [cytotoxic, single point] | –
O=C(c1ccccc1OCc1ccccc1Br)N1CCN(c2ncccn2)CC1 | inconclusive [cytotoxic, single point] | –
Cc1ccc(C2Nc3ccccc3-c3nc4ccccc4n32)o1 (stereo not drawn) | inconclusive [cytotoxic, single point] | –
Cc1cc(C)cc(N2C(=O)CC(Sc3ncn[nH]3)C2=O)c1 (stereo not drawn) | inactive | –
COc1ccc(CNC(=O)CNC(=O)c2sc3ccccc3c2Cl)cc1OC | inconclusive [cytotoxic, single point] | –
COc1ccc(C(C(=O)NCc2ccccc2)n2c(=O)c(-c3cc4ccccc4[nH]3)nc3ccccc32)cc1 (stereo not drawn) | inconclusive [cytotoxic, partial curve] | –
Cc1cc(C(=O)C(C)Sc2cccc[n+]2[O-])c(C)n1-c1ccc(Cl)cc1 (stereo not drawn) | active: 23.1 µM | –

Structure (SMILES) | Potency | activity, negative = toxicity
O=C(Nc1ccc(N2CCN(C(=O)c3ccccc3)CC2)c(Cl)c1)c1ccc(Br)o1 | inconclusive [cytotoxic, single point] | –
NC(=O)c1ncn([C@@H]2O[C@H](CNCc3cccn3-c3ccncc3)[C@@H](O)[C@H]2O)n1 | inactive | –
O=c1cc(COc2ccc(Cl)c(Cl)c2)nc2sccn12 | inconclusive [rising, partial curve] | –
CCN(CC)C1=CC(=[N+]2CCCC2)CC(C)(C)C1 | inconclusive [cytotoxic, full curve] | –
CC(=O)Nc1ccc(-c2csc(NC(=O)Nc3ccccc3)n2)cc1 | inconclusive [cytotoxic, single point] | –
O=C(c1cccs1)N(C(=O)c1cccs1)c1ccc(Br)cn1 | inconclusive [cytotoxic, single point] | –
Cc1ccc(S(=O)(=O)c2nc(S(C)(=O)=O)sc2N2CCCCC2C)cc1 (stereo not drawn) | inconclusive [cytotoxic, single point] | –
Cc1c(C(=O)N2CCN(Cc3ccc4c(c3)OCO4)CC2)sc2ncnc(N3CCN(c4ccccc4F)CC3)c12 | active: 18.4 µM | –
COc1ccc(CCNC(=O)c2cc3c(F)cccc3s2)cc1OC | inconclusive [cytotoxic, single point] | –
COC(=O)c1nn(-c2ccc3c(c2)CCN3C(C)=O)cc1O | inconclusive [cytotoxic, single point] | –
COc1cc2c(cc1OC)-c1cc(N3CCCCCC3)nc(=O)n1CC2 | inconclusive [cytotoxic, single point] | –
CCc1ccc(Nc2n[n+](-c3ccccc3)c(-c3ccc(C(=O)O)cc3)s2)cc1 | inconclusive [cytotoxic, full curve, poor fit] | –
COc1cc(/C=C/C(=O)c2ccc3c(c2)OCO3)cc(OC)c1OC | inconclusive [cytotoxic, single point] | –
CCOC(=O)[C@]12CCCC=C1N(Cc1cccc3ccccc13)C(=O)[C@H](CC(=O)N1CCN(C(=O)c3ccco3)CC1)C2 | inactive | –
CCOc1ccc2nc(NCCNC(=O)Nc3cccc(C)c3)c(C#N)cc2c1 | inconclusive [cytotoxic, single point] | –
Cc1cccc(Nc2ncc3c(n2)CC(c2ccco2)CC3=O)c1 (stereo not drawn) | inconclusive [cytotoxic, single point] | –
CCOC(=O)N1CCC2(CC1)C(C(=O)C13CC4CC(CC(C4)C1)C3)C2(C#N)C#N (stereo not drawn) | inactive | –
Oc1ccc(-c2cc(-c3ccc(O)cc3)nc(-c3ccccc3)n2)cc1 | inconclusive [cytotoxic, single point] | –
N#C/C(=C\c1cccnc1)c1nc2ccccc2[nH]1 | inconclusive [cytotoxic, partial curve] | –
Cc1ccc(-n2nnnc2SCC(=O)Nc2nc(-c3ccc(F)cc3)cs2)cc1C | inconclusive [cytotoxic, single point] | –
CC1c2cc3c(cc2CCN1C(=O)c1ccc(Cl)cc1)OCCCO3 (stereo not drawn) | inconclusive [cytotoxic, single point] | –
Cc1ccc(NC(=O)C2CCN(S(=O)(=O)c3cc([N+](=O)[O-])ccc3Cl)CC2)nc1 | inconclusive [cytotoxic, single point] | –

— PubChem BioAssay AID686971 (National Center for Advancing Translational Sciences (NCATS), 2013)
